# Data published in PubChem BioAssay (Tox21).
# Inconclusive results, whose numbers are uncertain, are shown with a selection of clear calls. For part of these data: No potency is given beside an inconclusive call; the fits are too rough. The source made the active and inactive calls. Unless noted, calls follow the shape of the dose curve; as a rule, active = well fitted curve in the direction sought with a large enough effect in the repeat runs; inconclusive = weak or mixed curves; inactive = no such curve, though single readings can be large; an effect the other way counts as inactive or inconclusive.
# Tests used:
# [1] = qHTS assay to identify small molecule antagonists of the TGF-beta/Smad signaling pathway - cell viability counter screen (AID 1346824); also: nearly all actives have a fitted effect of over 50% in size; also: potency is read from the fitted curve at half-maximal effect
# Procedure, shortened: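 SBE-bla HEK 293T cells were plated overnight at 37 C, then given compounds in DMSO plus TGF-beta1 (added as 0.25 ng/mL solution) for 5 hr. After the bla read, CellTiter-Glo was added to the same wells and luminescence read after 30 min at room temperature.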
# [2] = molecular target: Voltage-gated inwardly rectifying potassium channel KCNH2 (Homo sapiens) (UniProt Q12809); test: Human Ether-a-go-go-Related Gene (hERG) channel small molecule antagonists: fluorescence cell-based qHTS assay (AID 1671200);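 also: hERG-expressing U2OS cells given a thallium stimulus after FluxOR II dye loading; % is scaled to controls: 0 for no effect and ±100 for the full control effect; nearly all actives have a fitted effect of over 50% in size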
# Procedure, shortened: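 U2OS cells expressing the channel were plated at 1000 cells/well, incubated overnight at 37 C, then loaded with FluxOR II thallium-sensitive dye for 1 h at room temperature in the dark, with a further 10 min at room temperature before stimulation.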
# [3] = qHTS assay for small molecule agonists of the p53 signaling pathway - cell viability (AID 651633; calls by dose curve;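 also: p53RE-bla HCT reporter cells with a stable beta-lactamase p53 reporter; % is scaled to controls: 0 for no effect and ±100 for the full control effect; nearly all actives have a fitted effect of over 30% in size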)
# Procedure, shortened: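 p53RE-bla cells, seeded at 4,000 per well and rested 5 h at 37 C/5% CO2, received compounds in DMSO for 16 h at 37 C. CellTiter-Glo was then added, and luminescence was read after 30 min at room temperature to gauge cytotoxicity.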
# [4] = qHTS RealTime-Glo MT Cell Viability Assay in HepG2 cells - 24 hour (AID 1224867); also: nearly all actives have a fitted effect of over 50% in size; also: potency is read from the fitted curve at half-maximal effect; as to activity change, negative = cytotoxicity: % is scaled to controls: 0 for no effect and ±100 for the full control effect
# Procedure, shortened: (§1)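 Compound treatment began 5 h after plating HepG2 cells (600/well) with NanoLuc luciferase and prosubstrate. Plates stayed at 37 C for 40 h; luminescence was captured at six time points, 0 h through 40 h.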
# [5] = qHTS assay for small molecules that induce genotoxicity in human embryonic kidney cells expressing luciferase-tagged ATAD5 - cell viability (AID 651634; calls by dose curve; also: % is scaled to controls: 0 for no effect and ±100 for the full control effect; nearly all actives have a fitted effect of over 25% in size)
# Procedure, shortened: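 Quantitative high-throughput format. HEK293T cells expressing ATAD5 fused to luciferase were plated at 2,000 cells/well and treated 15.5 hr with compound versus DMSO. Viability was determined by fluorescent live-cell protease substrate, 30 min at 37C.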
# [6] = qHTS assay to identify small molecule antagonists of the androgen receptor (AR) signaling pathway using the MDA cell line in the presence of 0.5 nM R1881 - cell viability counter screen (AID 1259242); also: % is scaled to controls: 0 for no effect and ±100 for the full control effect; nearly all actives have a fitted effect of over 45% in size
# Procedure, shortened: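 Human breast carcinoma MDA-kb2 cells, cultured without CO2, receive compounds alongside 0.5 nM (final) R1881 agonist. After 16 hr at 37C, viability is taken as live-cell protease signal.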
# [7] = qHTS assay to identify small molecule HDAC inhibitors (AID 1259364); also: potency is read from the fitted curve at half-maximal effect;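 also: wild-type HCT-116 cells with endogenous class I/II HDAC activity; nearly all actives have a fitted effect of over 45% in size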
# Procedure, shortened: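 After a 2 hr compound incubation (37C, 5% CO2), HCT-116 cells seeded at 1,500/well the day before received HDAC-Glo reagent; signal read as luminescence after 30 min at room temperature.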
# [8] = molecular target: Androgen receptor (Homo sapiens) (UniProt P10275); test: qHTS assay to identify small molecule antagonists of the androgen receptor (AR) signaling pathway using the MDA cell line (AID 743042; also: nearly all actives have a fitted effect of over 55% in size; also: potency is read from the fitted curve at half-maximal effect)
# Procedure, shortened: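 MDA-kb2 cells (human breast carcinoma, stably carrying an MMTV-luciferase reporter responsive to AR and GR) were plated at 3,000 cells/well and preincubated 5 hr at 37C, then given compound plus R1881 agonist for 16 h. ONE-Glo luminescence was read.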
# [9] = molecular target: Androgen receptor (Homo sapiens) (UniProt P10275); test: qHTS assay to identify small molecule agonists of the androgen receptor (AR) signaling pathway in the presence of an antagonist (AID 1259381; calls by dose curve; also: potency is read from the fitted curve at half-maximal effect; nearly all actives have a fitted effect of over 15% in size)
# Procedure, shortened: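 AR antagonist background: nilutamide 3.0uM final. Cell line: MDA-kb2, MMTV-driven luciferase, responsive to both AR and GR. Exposure 16hr, 37C, no CO2; ONE-Glo luminescence.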
# [10] = qHTS assay for small molecule activators of the heat shock response signaling pathway - cell viability counter screen (AID 743209); settings: HSE-bla HeLa viability, CellTiter-Glo luminescence, 5 h; activity change, negative = cytotoxicity: at 62.6 µM (top of the series) unless noted; also: % is scaled to controls: 0 for no effect and ±100 for the full control effect; nearly all actives have a fitted effect of over 50% in size
# Procedure, shortened: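 Same-well multiplex: after 2.5 h room-temperature incubation with LiveBLAzer B/G substrate and fluorescence reading, CellTiter-Glo reagent was added to HSE-bla HeLa cells that had received compound for 5 h at 37 C; luminescence read after 30 min.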
# [11] = molecular target: Bile acid receptor (Homo sapiens) (UniProt Q96RI1); test: qHTS assay to identify small molecule agonists of the farnesoid-X-receptor (FXR) signaling pathway (AID 743220; active = well fitted activation curve with a large enough effect in the signal ratio in the repeat runs, not every such curve was filed as active; inconclusive = weak or mixed curves, or effect the other way; the % refers to the signal ratio; also: % is scaled to controls: 0 for no effect and ±100 for the full control effect); settings: HEK293T FXR-UAS-bla, beta-lactamase FRET ratio, 16 h; activation: at 62.6 µM (top of the series) unless noted
# Procedure, shortened: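 FXR-UAS-bla HEK 293T cells carrying a UAS-driven beta-lactamase reporter were plated for 5 h at 37C/5% CO2, then exposed to DMSO-dissolved Tox21 10K compounds for 16 h at 37C. A LiveBLAzer B/G FRET substrate was loaded for 2 h at room temperature before fluorescence reading.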
# [12] = qHTS assay to identify small molecule agonists of the estrogen related receptor (ERR) signaling pathway from Tox21 library (AID 1224849; calls by dose curve; also: % is scaled to controls: 0 for no effect and ±100 for the full control effect; nearly all actives have a fitted effect of over 15% in size); settings: ERR reporter cell line, ONE-Glo luciferase, 18 h; at 92.4 µM (top of the series) unless noted
# Procedure, shortened: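 Reporter cells (ERR, NTP source) treated with Tox21 10K compounds 18 h, 37 C. Readout: ONE-Glo luminescence, 30 min RT.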
# [13] = qHTS RealTime-Glo MT Cell Viability Assay in HepG2 cells - 32 hour (AID 1224877); also: nearly all actives have a fitted effect of over 55% in size; also: potency is read from the fitted curve at half-maximal effect
# Procedure, shortened: as §1
# [14] = A CellTox Green Cytotoxicity Assay to monitor cytotoxicity in HepG2 cells - 16 hour (AID 1224876); also: % is scaled to controls: 0 for no effect and ±100 for the full control effect; nearly all actives have a fitted effect of over 45% in size
# Procedure, shortened: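 Fluorescent DNA-binding dye, 600 HepG2 cells/well, 5 h preincubation then compound in DMSO; same plates read at 0–40 h, 37 C.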
# [15] = qHTS RealTime-Glo MT Cell Viability Assay in HepG2 cells - 0 hour (AID 1224889)
# Procedure, shortened: as §1
# [16] = molecular target: Estrogen receptor (Homo sapiens) (UniProt P03372); test: qHTS assay to identify small molecule agonists of the estrogen receptor alpha (ER-alpha) signaling pathway (AID 743075; calls by dose curve;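 also: HEK293 GripTite cells with ER-alpha and UAS-driven beta-lactamase reporter; % is scaled to controls: 0 for no effect and ±100 for the full control effect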); settings: HEK293 ER-alpha-UAS-bla, beta-lactamase FRET ratio, 18 h; activation: at 70.1 µM (top of the series)
# [17] = qHTS assay for small molecules that induce genotoxicity in human embryonic kidney cells expressing luciferase-tagged ATAD5 (AID 651632); also: % is scaled to controls: 0 for no effect and ±100 for the full control effect; nearly all actives have a fitted effect of over 15% in size
# Procedure, shortened: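 Test compounds were delivered by pin tool onto HEK293T reporter cells (2,000/well) expressing ATAD5 fused to luciferase. After 16 hr at 37C, 5% CO2, Amplite was added for 30 min at room temperature and luminescence was measured.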
# Tags tell the direction and shape of the fitted curve.
# Chain of UniProt P10275 (P10275 whole entry, looked up): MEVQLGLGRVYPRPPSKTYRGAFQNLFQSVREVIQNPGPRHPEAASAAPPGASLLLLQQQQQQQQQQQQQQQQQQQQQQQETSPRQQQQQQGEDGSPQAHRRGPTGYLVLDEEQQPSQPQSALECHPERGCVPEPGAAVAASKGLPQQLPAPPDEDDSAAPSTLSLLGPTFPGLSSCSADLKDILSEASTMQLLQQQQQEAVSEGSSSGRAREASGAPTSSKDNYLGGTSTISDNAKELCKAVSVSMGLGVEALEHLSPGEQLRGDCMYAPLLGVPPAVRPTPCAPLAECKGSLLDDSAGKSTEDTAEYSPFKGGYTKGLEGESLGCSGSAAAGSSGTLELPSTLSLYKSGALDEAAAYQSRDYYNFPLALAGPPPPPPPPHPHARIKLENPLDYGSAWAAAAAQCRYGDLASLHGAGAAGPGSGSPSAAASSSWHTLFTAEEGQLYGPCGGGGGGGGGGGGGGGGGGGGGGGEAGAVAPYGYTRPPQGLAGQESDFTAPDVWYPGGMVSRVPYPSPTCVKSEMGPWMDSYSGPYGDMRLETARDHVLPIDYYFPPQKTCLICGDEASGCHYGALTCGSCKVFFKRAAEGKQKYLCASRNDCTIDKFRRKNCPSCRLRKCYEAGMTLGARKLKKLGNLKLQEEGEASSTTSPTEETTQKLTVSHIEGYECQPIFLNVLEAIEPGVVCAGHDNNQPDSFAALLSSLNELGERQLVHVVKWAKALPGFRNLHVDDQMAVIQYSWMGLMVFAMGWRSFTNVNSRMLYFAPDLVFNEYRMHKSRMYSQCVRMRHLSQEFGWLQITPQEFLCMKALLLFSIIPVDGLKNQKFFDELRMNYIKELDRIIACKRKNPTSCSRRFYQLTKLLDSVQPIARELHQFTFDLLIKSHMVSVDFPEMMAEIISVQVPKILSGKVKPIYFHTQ
# Chain of UniProt Q96RI1 (Q96RI1 whole entry, looked up): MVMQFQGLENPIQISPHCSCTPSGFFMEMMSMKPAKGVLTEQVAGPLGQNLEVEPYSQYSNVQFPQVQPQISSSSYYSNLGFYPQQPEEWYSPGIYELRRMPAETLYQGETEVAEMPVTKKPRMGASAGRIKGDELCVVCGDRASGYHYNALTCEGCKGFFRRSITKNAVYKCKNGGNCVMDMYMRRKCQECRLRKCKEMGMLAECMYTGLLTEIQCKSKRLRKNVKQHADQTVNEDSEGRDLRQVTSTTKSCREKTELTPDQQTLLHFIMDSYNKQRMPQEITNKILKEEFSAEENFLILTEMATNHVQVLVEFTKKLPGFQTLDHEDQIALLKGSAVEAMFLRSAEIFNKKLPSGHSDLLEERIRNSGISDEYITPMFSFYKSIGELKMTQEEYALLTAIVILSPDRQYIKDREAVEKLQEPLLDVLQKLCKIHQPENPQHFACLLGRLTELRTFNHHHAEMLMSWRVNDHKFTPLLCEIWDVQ
# Chain of UniProt Q12809 (Q12809 whole entry, looked up): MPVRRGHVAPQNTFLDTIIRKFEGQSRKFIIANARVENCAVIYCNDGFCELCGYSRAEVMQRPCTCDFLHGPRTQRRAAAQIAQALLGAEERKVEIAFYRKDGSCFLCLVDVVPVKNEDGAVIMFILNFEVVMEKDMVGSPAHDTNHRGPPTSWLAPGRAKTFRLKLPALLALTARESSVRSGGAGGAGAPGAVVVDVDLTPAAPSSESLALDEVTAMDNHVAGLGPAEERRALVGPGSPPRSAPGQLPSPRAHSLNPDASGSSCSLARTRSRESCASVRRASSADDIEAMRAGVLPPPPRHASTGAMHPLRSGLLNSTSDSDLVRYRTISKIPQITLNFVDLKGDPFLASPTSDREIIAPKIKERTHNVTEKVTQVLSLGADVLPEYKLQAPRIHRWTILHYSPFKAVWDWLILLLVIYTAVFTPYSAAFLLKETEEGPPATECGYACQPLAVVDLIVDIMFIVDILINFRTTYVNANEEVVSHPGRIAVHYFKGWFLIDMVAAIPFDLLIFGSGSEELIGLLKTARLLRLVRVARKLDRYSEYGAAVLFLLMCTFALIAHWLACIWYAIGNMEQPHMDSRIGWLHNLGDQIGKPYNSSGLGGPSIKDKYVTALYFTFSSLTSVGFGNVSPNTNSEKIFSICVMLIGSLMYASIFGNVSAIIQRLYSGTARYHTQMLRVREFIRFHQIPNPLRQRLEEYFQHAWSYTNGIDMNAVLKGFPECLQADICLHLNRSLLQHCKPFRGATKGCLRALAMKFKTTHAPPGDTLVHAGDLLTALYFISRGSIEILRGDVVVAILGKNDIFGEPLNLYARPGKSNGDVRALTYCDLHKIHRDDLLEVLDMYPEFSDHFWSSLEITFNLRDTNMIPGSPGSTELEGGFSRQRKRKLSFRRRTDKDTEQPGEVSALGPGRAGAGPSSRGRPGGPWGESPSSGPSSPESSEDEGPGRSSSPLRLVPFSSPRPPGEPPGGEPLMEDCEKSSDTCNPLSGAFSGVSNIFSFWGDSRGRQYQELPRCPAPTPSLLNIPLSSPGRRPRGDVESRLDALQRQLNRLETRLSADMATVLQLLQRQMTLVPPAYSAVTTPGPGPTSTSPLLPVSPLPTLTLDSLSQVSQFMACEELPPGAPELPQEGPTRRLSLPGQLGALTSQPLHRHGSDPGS
# Chain of UniProt P03372 (P03372 whole entry, looked up): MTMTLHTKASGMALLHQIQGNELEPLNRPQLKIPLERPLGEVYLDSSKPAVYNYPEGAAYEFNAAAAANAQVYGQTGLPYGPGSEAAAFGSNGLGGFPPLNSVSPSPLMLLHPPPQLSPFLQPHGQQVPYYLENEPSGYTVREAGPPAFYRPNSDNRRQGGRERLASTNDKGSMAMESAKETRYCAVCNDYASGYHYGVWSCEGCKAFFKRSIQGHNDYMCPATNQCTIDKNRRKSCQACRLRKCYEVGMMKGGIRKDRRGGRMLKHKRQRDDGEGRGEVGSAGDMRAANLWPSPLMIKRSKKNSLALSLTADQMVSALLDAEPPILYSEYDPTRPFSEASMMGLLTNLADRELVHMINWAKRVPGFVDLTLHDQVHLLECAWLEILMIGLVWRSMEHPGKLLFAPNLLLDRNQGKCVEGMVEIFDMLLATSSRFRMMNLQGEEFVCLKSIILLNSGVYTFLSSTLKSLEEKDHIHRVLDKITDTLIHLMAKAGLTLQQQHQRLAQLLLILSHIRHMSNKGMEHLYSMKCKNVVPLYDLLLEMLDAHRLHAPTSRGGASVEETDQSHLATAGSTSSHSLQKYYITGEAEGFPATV
smiles,measurement,setting,value
CCN(Cc1cccc(S(=O)(=O)O)c1)c1ccccc1,Potency,[1],inactive
same,Potency,[2],inactive
CCCCCCCCCCCCCCCCCC#N,Potency,[3],inactive
same,Potency,[4],inactive
CC[N+](C)(CC)CC,Potency,[5],inactive
c1ccc2c(c1)[nH]c1ccccc12,Potency,[6],inactive
same,Potency,[7],"inconclusive [inhibitor, partial curve]"
CC(C)OC(=O)C(C(=O)OC(C)C)=C1SC=CS1,Potency,[8],inactive
same,Potency,[9],"inconclusive [rising, partial curve, poor fit]"
Cc1ccc(O)c(C(=O)c2ccccc2)c1,Potency,[8],"inconclusive [inhibitor, single point]"
C=C(C)C(=O)OC,Potency,[10],inactive
same,Potency,[11],inactive
NC(=O)c1cn(Cc2c(F)cccc2F)nn1,Potency,[10],inactive
Nc1ccc(C(=O)N2CC3CC(CN(Cc4ccccc4)C3)C2)cc1,Potency,[11],inactive
COC(=O)c1ccc(C=O)cc1,"activity change, positive = activation",[12],inconclusive: 22.4%
CC(C)(C)c1cc(CCC(=O)NCCCCCCNC(=O)CCc2cc(C(C)(C)C)c(O)c(C(C)(C)C)c2)cc(C(C)(C)C)c1O,Potency,[4],"inconclusive [falling, full curve]"
same,Potency,[13],"inconclusive [cytotoxic, full curve]"
C=CC(C)C#N (stereo not drawn),Potency,[7],inactive
CO[Si](CCCNCCNCCN)(OC)OC,Potency,[9],"inconclusive [rising, partial curve]"
CCC(C)C(=O)OC (stereo not drawn),"activity change, positive = activation",[12],inactive: -4.99%
same,Potency,[4],inactive
same,Potency,[1],inactive
same,Potency,[2],inactive
O=C(CCCCC(=O)Nc1c(I)cc(I)c(C(=O)O)c1I)Nc1c(I)cc(I)c(C(=O)O)c1I,Potency,[10],inactive
same,Potency,[13],inactive
CCOC(=O)CN1CCCC1=O,Potency,[1],inactive
CCOC(=O)c1c(C)n(C)c2ccc(O)cc12,Potency,[11],inactive
CCCCCCC#CC(=O)OC,Potency,[7],inactive
CCCCCCCC=O,Potency,[14],inactive
same,Potency,[15],inactive
CCc1cccc(CC)c1N(COC)C(=O)CS(=O)(=O)O,Potency,[1],"inconclusive [cytotoxic, single point]"
c1cc(CCCc2ccncc2)ccn1,Potency,[16],inactive
C1CN(CCOCCN2CCOCC2)CCO1,Potency,[17],inactive
